# Data taken from the RNAGym collection of RNA variant scans (doi:10.7554/elife.90254).
# The source gives no read counts; variants with many changes may rest on few reads.
# B1: LINE1-full (parent)
# chain: UACGUAGGUGGUUUUCCCCUGAUAGUGCUAAGGGGGCCUGGAAGUUUGGACUGGGCAGAGCUCAACACAGCGUGGCAAAGUGGCUGUGGCUAGACUGCCUCUCUGGAUUCCUCGUCACUCAGCAGGGCAUCUCUGAGAGAAAUGCC
# Variants of: B1
# Assay: self-cleavage, relative activity (ratio to wild type); higher = more cleavage; in vitro, sequencing; the parent is a self-cleaving ribozyme
row,Variant,self-cleavage
1,UACGUAGGCGGGUCUCCCCUGAUAGUGCUAAGGGGGCCUGGAAGUUUGGACUGGACAGAGCUCAACACAGCGUGGCAAAGUGGCUGUGGCUAGACUGCCUCUCUGGAUUCCUCGUCACUCAGCAGGGCAUCUCUGAGAGAAAUGCC [U9C U12G U14C G55A],0.65
2,UACGUAGGUGGUUCUCCCCUGAUAGUGCUAAGGGGGCCCGGAAGUUUGGACUGGGCAGGGCUCAACACAGCGUGGCAAAGUGGCUGUGGCUAGACUGCCUCUCUGGAUUCCUCGUCACUCAGCAGGGCAUCUCUGAGAGGAAUGCC [U14C U39C A59G A140G],0
3,UGCGUAGGUGGUUUUCCCCUGACAGUGCUAAGGGGGCCCGGAAGUUUGGACUGGGCAGAGCUCAACACAGCGUGGCAAAGUGGCUGUGGCUAGACUGCCUCUCUGGAUUCCUCGUCUCUCAGCAGGGCAUCUCUGAGAGAAAUGCC [A2G U23C U39C A117U],0.39
4,UACGUAGGUGGUUUUCCCCUGUUAGUGCUAAGGGGGCCUGGAAGUUUGGACUGGGCAGAGCUCAACACAGCGUGGCAAAGUGGCUGAGGCUAGACUGCCUCUCUGGAUUCCUCGUCACUCAGCAGGGCAUCUCUGAGAGUAAUGCC [A22U U87A A140U],0.07
5,UACGUAGGUGGUUUUCCCCUGAUAGUGCUAAGGGGGCCUGGAAGUUUGGACUGGGCAGAGCUCAACACUGCGUGGCAAAGUGGCUGUGGCUAGACUGCCACUCUGGAUUCCUCGUCACUCAGCAGGGCAUCGCUGAGAGAAACGCC [A69U U100A U132G U143C],0.06
6,UACGUAGGUGGUUUUCCCCUGAUAGGGCUAAGGGGGCCUGGAAGUUUGGACUGGGCAGAGCUCAACACAGCGUGGCAAAGUGGCUGUGGCUAGACUGCCUCUCUGGAUUCCUCGUCACUCAGCAGGGGGUCUCUGGGAGAAAUGCC [U26G C128G A129G A136G],1.44
7,UACGUAGGUGGUUUUCCCCUGAUAGAGCUAAGGGGGCCUGGAAGUUUGGACUGGGCAGAGCUCAACACAGCGUGGCAAAGUGGCUGUGGCUAGACUGCCUCUCUGGAUUCCUCGUCACGCAGCAGGGCAUCUCUGAGAGGAAUGCC [U26A U119G A140G],0.86
8,UACGUAGGUGGUUUUCCCCUGAUAGCGCUAAGGGGGCCUGGAAGUUUGGACUGGGCAGAGCUCAACACAGCGUGGCAAAGUGGCUGUGGCUAGGCUGCCUCUCUGGAUUCCUCGUCACUCUGCAGGGCAUCUCUGAGAGAAAUGCC [U26C A94G A121U],0.53
9,UACGUAGGUGGUUUUCCCCUGAUAGUGCUAAGGGGGCCUGGAAGUUUGGACUGGGCAGAGCUCAACACAGCGUGGCAAAGUGGCUGUGGCUAGACCGCCUCUCUGGAUUCCUCGUCACUUAGCAGGGCAUCCCUGAGAGAAAUGCC [U96C C120U U132C],0.28
10,UACGCAGGUGGUUUUCCCCUGAAAGUGCUAAGGGGGCCUGGAAGUUUGGACUGGGCAGAGCUCAACACAGCGUGGCAAAGUGGCUGUGGCUAGACUGCCUCUCUGGAUUCCUCGUCACCCAGCAGGGCAUCUCUGAGAGAAGUGCC [U5C U23A U119C A142G],1.43
11,UACGUAGGUGGUUCUCCCCUGAUAGUGCUAAGGGGGCCUGGAAGUUAGGACUGGGCAGAGCUCAACACAGCGUGGCAAAGUGGCUGUGGCUAGACUGCCUCUCUGGAUUCCUCGUCACUCAGCAGGGCAUCUCUGAGAGAAACGCC [U14C U47A U143C],0.94
12,UACGUAGGUGGUUUUCCCCUGAUAGUGCUUAGGGGGCCUGGAAGUUUGGACUGGGCAGAGCUCAACACAGCGUGGCAAAGUGGCUGUGGCUAGACUGCCUCUCUGGAUUCCUCGUCACUCGGCAGGGCAUCUCUGAGUGAAAUGCC [A30U A121G A138U],1.28
13,UACGAAGGUGGUUUUCCCCUGAUAGUGCUAAGGGGUCCUGGAAGUUUGGACUGGGCAGAGCUCAACACAGCGUGGCAAAGUGGCUGUGGCUAGACUGCCUCCCUGGAUUCCUCGUCACUCAGCCGGGCAUCUCUGAGAGGAAUGCC [U5A G36U U102C A124C A140G],2.36
14,UACGUAGGUGGUUUUCCCCUGAUAGUGCUAAGGGGGCUUGGGAGUUUGGACUGGGCAGGGCUCAACCCAGCGUGGCAAAGUGGCUGUGGCUAGACUGCCUCUCUGGAUUCCUCGUCACUCAGCAGGGCAUCUCUGAGAGAAAUGCC [C38U A42G A59G A67C],0.29
15,UACGUAGGUGGUUUUCCCCUGAUAGUGCUAAGGGGGCCUGGAAGUCUGGACUGGGCAGAGCUCAACACUGCGUGGCAAAGUGGCUGUGGCUAGACUGCCACUCUGGAUUCCUCGUCACUCAGCAGGGCAUCUCUGAGAGAAAUGCC [U46C A69U U100A],0.09
16,UACGUAGGUGGUUUUCCCCCGAUAGUGCUAGGGGGGCCUGGAAGUUUGGACUGGGCAGAGCUCAACACAGCGUGGCAAAGUGGCUGUGGCUAGACUGCCUCUCUGGAUUCCUCGUCACUCAGCAGGGCACCUCUGAGAGAAAUGCC [U20C A31G U130C],1.84
17,UACGUAGGUGGUUUCCCCCUGAUAGUGCUAAGGGGGCCUGGAAGUUUGGACUGGGCGGAGCUCAACGCAGCGUGGCAAAGUGGCUGUGGCUAGACUGCCUCUCUGGAUUCCUCGUCACUCAGCAGGGCAUCUCUGAGAGAAAUGCC [U15C A57G A67G],1.53
18,UACGUAGGUGGUUUCCCCCUGAUAGUGCUAAGGGGGCCUGGAAGUUUGGACUGGGCAGAGCUCAACACAGCGGGGCAAAGUGGCUGUGGCUAGACUGCCUCUCUGGAUUCCUCGUCACUCAGUAGGGCAUCUCUGAGAGAAAUGCC [U15C U73G C123U],1.42
19,UACGUAGGUGGUUUUCCCCUGGUAGUGCUAAGGGGGCCUGGAAGUUUGGACUGGGCGGAGCUCUACACAGCGUGGCAAAGUGGCUGUGGCUGGACUGCCUCUCUGGAUUCCUCGUCACUCAGCAGGGCAUCUCUGAGAGAAAUGCC [A22G A57G A64U A92G],0.77
20,UACGUAGGUGGUUUUCCCCUGAUAGUGCUAAGGGAGCCUGGAAGUUUGGACUGGGCAGAGCUCAACACAGCGUGGCAAAGUGGCUGUGGCUAGACUGCCUCUCUGGAUCCCUCGCCACUCAGCAGGGCAUCUCUGAGAGAAAUGCC [G35A U109C U115C],0.66

row,Variant,self-cleavage
1,UACGUAGGUGGUUUUCCCCUGAUAGUGCUAAGGGGGCCUGGAAGUUUGGACUAGGCAGAGCUCAACACAGCGUGGCAAGGUGGCUGUGGCUAGACCGCCUCUCUGGAUUCCUCGUCACUCAGCAGGGCAUCUCUGAGAGAAAUGCC [G53A A79G U96C],0.17
2,UACGUAGGUGGUUUUCCCCUGAUGGUGCUAAGGUGGCCUGGAAGUUUGGACUGGGCAGAGCUCGACACAGCGGGGCAAGGUGGCUGUGGCUAGACUGCCUCUCUGGAUUCCUCGUCACUCAGCAGGGCAUCACUGAGAGAAAUGCC [A24G G34U A64G U73G A79G U132A],2.51
3,UACGUAGGUGGUUUCCCCCUGAUAGUGCUAAGGGGGCCUGGAAGUUUGGACUGGGCAGAGCUCAACACAGCGUGGCAAAGUGGCUGUGGCCAGACUGCCUCUCUGGAUUCCUCGUCACUCAGCAGGGCAUCUCUGAGAGAAACGCC [U15C U91C U143C],0.43
4,UACGUAGGUGGUUUUCCCCUGAUAGUGCUAAGGGGGCCUGGAAGUCUGGACUGGGCAGAGCUCUACACAGCGAGGCAAAGUGGCUGUGGCUAGACUGCCUCUCUGGAUUCCUCGUCACCCAGCAGGGCAUCUCUGAGAGAAAUGCC [U46C A64U U73A U119C],0.81
5,UACGCAGGUGGUUUUCCCCUGAUAGUGCUAAGGGGGCCUGGAAGCUUGGACUGGGCAGAGCUCAACACAGCGUGGCAAAGUGGCUGUGGCUAGACUGCCUCUCUGGAUUCCUCGUCACUCAGCAGGGCAUCUCUGUGAGAAGUGCC [U5C U45C A136U A142G],1.5
6,UACGUAGGUGGUUCUCCCCUGAUAGUGCUAAGGGGGCCUGGAAGUUUGGACUGGGCAGAGCUCAACACAGCGUGGCAAAGUGGCUGUGGCUAGACUGCCUCUCUGGAUACCUCGUCACUCAGCAGGGCAUCUCUGAGAGGAAUGCC [U14C U109A A140G],1.08
7,UACGUAGGUGGCUUUCCCCUGAUAGUGCUAAGGAGGCCUGGAAGUUUGGACUGGGCAGAGCUCAGCACAGCGUGGCAAAGUGGCUGUGGCUAGACUGCCUCUCUGGAUUCCUCGUCACUCAGCAGGGCAUCUCUGAGAGAAAUGCC [U12C G34A A65G],0.25
8,UGCGUAGGUGGUUUUCCCCUGAUAGUGCUAAGGGGGCCUGGUAGUUUGGACUGGGCAGUGCUCAACACAGCGUGGCAAAGUGGCUGUGGCUAGACUGCCUCUCCGGAUUCCUCGUCACUCAGCAGGGCAUCUCUGAGAGAAAUGCC [A2G A42U A59U U104C],0.78
9,UACGUAGAUGGUUUUCCCCUGAUAGUGCUAAGGGGGCCUGGAAGUUUGGACUGGGCUGAGCUCAACACAGCGUGGCGAAGUGGCUGUGGCUAGACUGCCUCUCUGGAUUCCUCGUCACUCAGCAGGGCAUCUCUGAGAGAAAUGCC [G8A A57U A77G],0.15
10,UACGUAGGUGGUUUUCCCCUGAUAGUGCUAAGGGGGCCUGGAAGUUAGGACUGGGCAGAGCUCAACACAGCGUGGCGGAGUGGCUGUGGCUUGACUGCCUCUCUGGAUUCCUCGUCACUCAGCAGGGCAUCUCUGAGAGAAAUGCC [U47A A77G A78G A92U],0.97
11,UACGUAGGUGGUUUUCCCCUGAUAGUGCUAAGGGGGCCUGGAAGUUUGGACUGGGCAGAGCUCAGCACAGCGUGGCAAAGUGGCUGUGGCUAGACUGCCUCUCUGGAUUCCUCGUCACUCAGCAGGGCGUCUCUGAGAGUAAUGCC [A65G A129G A140U],0
12,UACGUAGGUGGUUUUCCCCUGAUAGUGCUAAGGGGGCCUGGAAGUUCGGACUGGGCAGAGUUCAACACAGCAUGGCAAAGUGGCCGUGGCUAGACUGCCUCUCUGGAUUCCUCGUCACUCAGCAGGGCAUCUCUGAGAGAAGUGCC [U47C C61U G72A U85C A142G],0.03
13,UACGUAGGUGGUUUUCCCCUGAUAGUGCUAAGGGGGCCUGGAGGUUUGGAUUGGGCAGAGCUCAGCACAGCGUGGCAAAGUGGCUGUGGCUGGACUGCCUCUCAGGAUUCCUCGUCACUCAGCAGGGCAUCUCUGAGAGAAAUGCC [A43G C51U A65G A92G U104A],0.17
14,UACGAAGGUGGUUUUUCCCUGAUAGUGAUAAGGGGGCCUGGAAGUUUGGACUGGGCAGAGCUCAACACAGCGUGGCAAAGUGGCUGUGGCUAGACUGCCUCUCUGGAUUCCUCGUCACUCAGCAGGGCAUCUCUGAGAGAAAUGCC [U5A C16U C28A],0.82
15,UACGUAGGUGGUUUUCCCCUGAUAGUUCUAAGGGGGCCUGGUAGUUUGGACUGGGCAGAGCCCAACACAGCGUGGCGAAGUGGCUGUGGCUAGACUGCCUCUCUGGAUUCCUCGUCACUCAGCAGGGCAUCUCUGAGAGAAAUGCC [G27U A42U U62C A77G],0
16,UACGUAGGUGGUUUUCCCCUGAUAGUGCUAAGGGGGCCUGGAAGUAUGGACUGGGCAGAGCACAACACAGCGUGGCAAAGUGGCUGUGGCUAGACUGCCUCUCUGGAUUCCUCGUCACUCAGCGGGGCAUCUCUGAGAGGAAUGCC [U46A U62A A124G A140G],0.06
17,UACGUAGGUGGUUUUCCCCUGAUAGUGCUAAGGGGGCCUGGAAGUUUGGACUGGGCAGAGCUCGACACAGCGUGGCAAUGUGGCUGCGGCUAGACUGCCUCUCUGGAUUCCUCGUCACUCAGCAGGGCAUCUCUGAGAGAAAUGCC [A64G A79U U87C],0
18,UACGUAGGUGGUUGUCCCCUGAUAGUGCUAAGGGGGCCUGGAAGUUUGGACUGGGCAGAGCUCAACACAGCGUGGCAAAGUGGCUGUGGCUAGACUGCCUCUCUGGAUUCCUCGUCACUCAGCUGGGCGUCUCUGAGAGAAAUGCC [U14G A124U A129G],1.37
19,UACGUAGGUGGUUUUCCCCUGAUAGUGCUAAGGGGGUCUGGAAGUUUGGACUGGGCAGAGCUCAGCACAGCGUGGCAAAGUGGCUGUGGCUAGACUGCCUCUCUGGAUUCCUCGUCGCUCAGCAGGGCAUCUCUGAGAGAAAUGCC [C37U A65G A117G],0
